{"source": "the RNAGym collection of RNA variant scans (doi:10.7554/elife.90254)", "parents": {"B1": {"name": "LINE1-mini (parent)", "chain": "GGCAGAGCUCAACACAGCGUGGCAAAGUGGCUGUGGCUAGACUGCC"}}, "note": "Read counts are not given, so values of variants with three or more changes are uncertain."}
{"variants_of": "B1", "experiment": "self-cleavage, relative activity (ratio to wild type); higher = more cleavage; in vitro, sequencing; the parent is a self-cleaving ribozyme"}
{"variant": "GGCAGAGCUCAAUACAGCGAUGCAAAUUGGCUGUGGCUAGACUGCC", "self-cleavage": 0.18}
{"variant": "GGCAGAUCUCCACACAGCGUGGCAAAGGGGCGGUGGCUAGAAUGCC", "self-cleavage": 0.01}
{"variant": "GGCAGAGCUCAACACAACGUGGCAAAGUAGCUGUGGCUAUACUGCC", "self-cleavage": 0.04}
{"variant": "GGCAGAGCUCAACACAGCGUGGCAAAGUGGCUGUGCCUACAAUGCC", "self-cleavage": 0.01}
{"variant": "GGCAAAGCUCAACACAGUGUGGCAAAGUGGCUGUUGCUAGCCUGCC", "self-cleavage": 0.02}
{"variant": "GGCCGAGCUCAACACAGUGUGGCAAAGUGGCUGUUGCUAGACUGCC", "self-cleavage": 0.09}
{"variant": "GGCAGAGCUCAAUACUGCGUGCCAAAGUGGCUGUGGCUAGACUGCU", "self-cleavage": 0.04}
{"variant": "GGAAGAGCUCAACACAGCGUGGCAAAGUGACUGUGGUUAGACUGCC", "self-cleavage": 0.47}
{"variant": "GGGAGAGCUCAACACAGCGUGGCAAAGUCGCUGUGGGUAGACUGCC", "self-cleavage": 0.16}
{"variant": "GGCAGAGCGCAUCACAGCGUGGCCAAGUGGCUGUGGCUAGGCUGCC", "self-cleavage": 0.03}
{"variant": "GGCAGAGCCCAUCACAGCGUGGCAAAGUGGCCGUGGCUAGACUGCC", "self-cleavage": 0.02}
{"variant": "GGCUGAGCUCAGCACAGCGUGGCAAAGUGGCGGUGGCUAGACUGCC", "self-cleavage": 0.1}
{"variant": "GGCAGAGCUUAGCACAGCGUGGAAAAGUGGCUGUGGCUAGACUUCC", "self-cleavage": 0.03}
{"variant": "GGCAGAGCUCAACCCAGCGUAGCAAAGUGGCUGGGGUUAGACUGCC", "self-cleavage": 0.01}
{"variant": "UGCAGAGCUCAACACAGCGUGGCAAAGUGGCGGCGGCUAGACUGCA", "self-cleavage": 0.01}
{"variant": "GGCAGAGCUCAACACAGCGUGGCAAAGUGGGAGUGACUAGACUGCC", "self-cleavage": 0.05}
{"variant": "GGCAGAGCUCAGCAGAUCGUGGCAAAGUGGCUGUGGCUAGAAUGCC", "self-cleavage": 0.03}
{"variant": "GGCAGUGCUCAACACUGCGUGGCAAACUGGCUGUGGCUAGACUGCC", "self-cleavage": 0.03}
{"variant": "GACAGAGCUCAACACAGCGUGGCAAUGUGGCUGCGACUAGACUGCU", "self-cleavage": 0.07}
{"variant": "GGCAGAGUUCAACACAGCGUGGCAAAUUGGCUGUGACUAGACUGCC", "self-cleavage": 0.3}
{"variant": "GGCAGAUCUCAACACAGAGUGGCAAAGUGACUGUGGCUCGACUACC", "self-cleavage": 0.1}
{"variant": "GGCAGAGCUCAACACAGCGUGGCAAAGUAGCUGUGUCUAGCCUGUC", "self-cleavage": 0.23}
{"variant": "GUCAGAGCACAACACAGCGUGACAAAGUGGCUGUGACUAGACUACC", "self-cleavage": 0.04}
{"variant": "AGCAGAGCUCAUCACAGCGUGCCAAAGUGGCUGUGGCUAGACUACC", "self-cleavage": 0.09}
{"variant": "GGCAGAGAUCAACACAGCGUGGCAAAGUGGCUGUGAUUAGACUGCC", "self-cleavage": 0.33}
{"variant": "GGCAGAGCUCAACACAGCGUGGCAAAAUGGCUAUGGCUAGAAUGUC", "self-cleavage": 0.01}
{"variant": "GGCAGAGCUCAAGACAGUGUGGCAAAGUUGCUGUGGGUAGACUGCC", "self-cleavage": 0.13}
{"variant": "GGCAGACCUCAACACAGAGUGGCACAGAGGCUGUGGCUAGACUGCC", "self-cleavage": 0.03}
{"variant": "GGCAGUGCUUAACACAGCGUGGCAAAGUGGCUGUGGCUAGAAUGCC", "self-cleavage": 0.04}
{"variant": "GGCAGGGCUCAACACAGCUUGGCAGAGUGGCUGUGGCUAGACUGGC", "self-cleavage": 0.54}
{"variant": "GGCAGAGCUCAACACAGCGUGGUAAAGUGGCUGUGGCUACAUUGCC", "self-cleavage": 0.22}
{"variant": "GGCAGAGCUCAACACAUCGGGGCAAAGUGGCUGUGGCUAAACUGCC", "self-cleavage": 0.07}
{"variant": "GACAGAGCUCAACACACGGUGGAAAAGUGGCUGUGGCUAGACUGCA", "self-cleavage": 0.03}
{"variant": "GGAACAGCUCAUCACAGCGUGGCAAAGUGACUAUCGCUAGACUGCC", "self-cleavage": 0.05}
{"variant": "GGCAGAGCUCAACCCAGCGUGGUCAAGUAGCUGUGGCUAGACUGCC", "self-cleavage": 0.03}
{"variant": "AGCAGAGCUCAACACAGCGUGGCAAAGUGGCUGUGUCUAGACUGCA", "self-cleavage": 1.01}
{"variant": "GGCAGAGCUCAAGAUAGCGUGGCAAAGUGGCAGUGGCUCGACUGCC", "self-cleavage": 0.03}
{"variant": "CGCAAAGCUCAACGCAGCGUGGCAAAGUGGCUGUGGCUAGACUGCC", "self-cleavage": 0.02}
{"variant": "GGCAGAGCUCAACACUGCGUGGCAGAGUGGCUGUUGCUAGACUGCC", "self-cleavage": 0.03}
{"variant": "GACAGAGCUCACCACAGCGUGGCAAAGUGGAUGCGGCUAGACUGCC", "self-cleavage": 0.05}
{"variant": "GGCAGAGCUUAACACACCGUGGCAAAGUCGCUGUGGCUAGACUGCC", "self-cleavage": 0.03}
{"variant": "GGCAGAGCUUAACACAGCGUGGCAAAGUGGCUGUGGCUAGACUUAG", "self-cleavage": 0.04}
{"variant": "GGCAGAGCUCAACACAGCGUGGCCAAGUGGCUGUGGCUAUACAGCC", "self-cleavage": 0.03}
{"variant": "UGCAGAGCACAACACAGCGUGACAGAGUGGCUGUGGCUAGACUGCA", "self-cleavage": 0.05}
{"variant": "GGCAGAGCUCAACACAACGAGGCAAAGUGGCUGUUGCUAGACUGCC", "self-cleavage": 0.08}
{"variant": "GGCGGAGCUCAACACAUCAUGGCAAAGUCGCUGUGAAUAGACUGCC", "self-cleavage": 0.15}
{"variant": "GUCAGAGCUCAACACACCGAGGCAAAGUGGCUGUGGCUAGACCGCC", "self-cleavage": 0}
{"variant": "GGCAGAGCUCAACACAGAGUGGCAAACUGGCUGUGGCUAGACUGUC", "self-cleavage": 0.47}
{"variant": "GGCAGAGCUCAACACAGCGUGGCAAAGUGGCUGUGCUUAGGCUGCC", "self-cleavage": 0.1}
{"variant": "GGCAGAGCUCAACACAGCAUGGCAAAGUAGCUGUGGCCAGACUGCC", "self-cleavage": 1.65}
{"variant": "GGCAGAGAUCAACACAGCGUGGCAAAGUGGCUGUCGCUAGAUUCCC", "self-cleavage": 0.14}
{"variant": "GGCAGGGCUCAACACAGCGUGGCAAAGUGGCUGUUGCUAGAAUGCC", "self-cleavage": 0.02}
{"variant": "GGCAGAGCUCAACACAGCGUGCGACAGUGGCUGUGGCUAGACUGCC", "self-cleavage": 1}
{"variant": "GGCAGAGUUCAACACAGCGGGGCAAAGUGGCUGUGGCUAGAAUGCC", "self-cleavage": 0.09}
{"variant": "GGCAGAGCUCAACAAAGAGUGGCCAAGUGGCUGUGGCUAGACUGCC", "self-cleavage": 0.19}
{"variant": "AGCAGAGCUCAACACCGCGUGGCAAAGUGGCUGUCGCUAGCCUGCC", "self-cleavage": 0.01}
